Experimental data from PubChem BioAssay AID1347073 (National Center for Advancing Translational Sciences (NCATS), 2019).
Out of some 45,000 compounds screened, about 200 (0.44%) were called active. The inconclusive results got no clear call from the source; some entries with a clear call stand among them for comparison. Calls follow the shape of the dose curve; as a rule, active = well fitted activation curve with a large enough effect; inconclusive = small, poorly fitted or top-dose-only effect; inactive = no such curve, though single readings can be large or run the other way. Where the call is inconclusive, the potency comes from a doubtful curve fit.

Assay: qHTS of TDP-43 Inhibitors: NCGC Sytravon Library Screen; also: nearly all actives have a fitted effect of over 55% in size; as to growth rescue (activation): 0% is about no effect
Conditions: yeast TDP-43 toxicity rescue, BacTiter-Glo growth, 24 h; growth rescue (activation): at 46.1 µM (top of the series)
Method in brief: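 TDP-43-expressing yeast, pregrown in raffinose, seeded at OD600 0.02 in galactose medium with compound for 24 hr at 30 deg C. Growth read by BacTiter-Glo luminescence, so rescue of toxicity appears as activation.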
Potency is read from the fitted curve at half-maximal effect; tags tell the direction and shape of the fitted curve.

| Compound | Potency | growth rescue (activation) |
| --- | --- | --- |
| N#Cc1c(/N=C/N2CCCC2)oc(-c2ccccc2)c1-c1ccccc1 | inconclusive: 35.5 µM [activator, partial curve, poor fit] |  |
| Cc1ccc(NC(=S)NCc2ccc3c(c2)OCO3)cc1C | inconclusive: 12.6 µM [activator, partial curve, poor fit] |  |
| COc1ccccc1CC1(C)C(=O)Nc2c(Cl)cccc21 (stereo not drawn) |  | inconclusive: 131% [activator] |
| Cn1c(=O)n(C)c2cc([N+](=O)[O-])c(N3CCN(C(=O)c4cccc(Cl)c4)CC3)cc21 |  | inactive: 30% |
| COc1ccc(CCN(C)C(=O)Cc2ccc(-c3ccccc3)cc2)cc1OC | inconclusive: 12.6 µM [activator, partial curve, poor fit] |  |
| Cc1cccc2c1N(Cc1ccccc1OCCC(C)C)C(=O)C2=O |  | inactive: -5.36% |
| CN(Cc1ccccc1Cl)C(=O)c1cc2ccccc2o1 |  | inactive: 8.84% |
| O=C(OCc1ccc(Br)cc1)c1cccnc1Cl | inconclusive: 14.1 µM [activator, partial curve, poor fit] |  |
| CCOc1cc(/C=N/O)ccc1OCc1ccccc1F | inconclusive: 17.8 µM [activator, partial curve, poor fit] |  |
| O=C(NC(=S)Nc1ccccc1N1CCCCC1)c1cccs1 | inconclusive: 14.1 µM [activator, partial curve, poor fit] |  |
| CCC(=O)N1CCN(c2c(Cl)cccc2[N+](=O)[O-])CC1 | inconclusive: 31.6 µM [activator, single point] |  |
| COc1ccc(-c2cc(C(=O)NNC(=S)NC(=O)c3c(-c4ccccc4)noc3C)[nH]n2)cc1 | inconclusive: 10 µM [activator, partial curve] |  |
| CC12CC3CC(C)(C1)CC(C(=O)N1CCN(C(=O)C4CCCO4)CC1)(C3)C2 (stereo not drawn) |  | inactive: 18.7% |
| Cc1ccc(C)c(C(=O)COC(=O)c2n[nH]c3ccccc23)c1 | inconclusive: 17.8 µM [activator, partial curve, poor fit] |  |
| O=[N+]([O-])c1ccc(CSc2ccc(S(=O)(=O)N3CCOCC3)cn2)cc1 | inconclusive: 14.1 µM [activator, single point] |  |
| CCC(CC)c1nnc(NC(=O)c2cccc(S(=O)(=O)N3CCOCC3)c2)s1 |  | inactive: 5.49% |
| Cc1c(CCO)c(=O)oc2n[nH]c(-c3ccccc3)c12 |  | inactive: 4.05% |
| COc1cc(Cl)c(C)cc1NC(=O)C1CCN(c2nc3ccccc3n3cccc23)CC1 |  | inactive: 8.39% |
| COc1ccc(NC(=S)N(Cc2ccc(Cl)cc2)Cc2ccc(C(=O)O)cc2)cc1Cl | inconclusive: 28.2 µM [activator, partial curve, poor fit] |  |
| Cn1cnc([N+](=O)[O-])c1Oc1cccc2ccccc12 | inconclusive: 22.4 µM [activator, partial curve, poor fit] |  |
| COc1ccc(NC(=O)C2(C)CCCN2C(=O)C(C)C)cc1OC (stereo not drawn) |  | inactive: -4.91% |
| Cc1ccccc1-c1cc2c(nn1)-c1ccccc1C2=O | inconclusive: 12.6 µM [activator, partial curve, poor fit] |  |
| O=C(NCc1ccc2c(c1)OCO2)c1ccc(CSCc2cccc(Cl)c2)o1 | inconclusive: 25.1 µM [activator, single point] |  |

| Compound | Potency | growth rescue (activation) |
| --- | --- | --- |
| COc1ccc(C(=O)Nc2ccccc2Cc2ccccc2)c(OC)c1 | inconclusive: 35.5 µM [activator, single point] |  |
| O=C1N(c2cccc(Cl)c2)C(c2ccc(Cl)cc2)N2CCCN12 (stereo not drawn) | inconclusive: 10 µM [activator, partial curve, poor fit] |  |
| O=C(c1ccc2c(c1)OCO2)C1CCCN(C(=O)NCc2ccccc2)C1 (stereo not drawn) | inconclusive: 14.1 µM [activator, partial curve, poor fit] |  |
| COc1ccc(/C=N/Nc2ncnc3sc4c(c23)CCCC4)cc1O | inconclusive: 22.4 µM [activator, single point] |  |
| COc1cc2c(cc1OC)C(c1ccccc1OC(C)C)CC(=O)N2 (stereo not drawn) |  | inactive: 7.73% |
| COc1ccc(OCCCC(=O)Nc2cccc(SC)c2)cc1 | inconclusive: 11.2 µM [activator, single point] |  |
| O=[N+]([O-])c1ccccc1S(=O)(=O)Oc1ccc(C(=S)N2CCOCC2)cc1 | inconclusive: 22.4 µM [activator, single point] |  |
| COc1ccccc1C(=O)N/C(=C\c1ccc2c(c1)OCO2)C(=O)NCCc1nc2ccccc2[nH]1 |  | inactive: -1.77% |
| Cc1ccc(S(=O)(=O)Nc2ccc3nc(C)sc3c2)cc1 | inconclusive: 14.1 µM [activator, partial curve, poor fit] |  |
| Cc1ccccc1S(=O)(=O)Nc1nc2ccccc2nc1Cl | inconclusive: 12.6 µM [activator, partial curve, poor fit] |  |
| CC(=O)N1c2ccc3ccccc3c2C(C)CC12CCCCC2 (stereo not drawn) | active: 14.1 µM |  |
| CCCCCOc1ccc(C(=O)NC(CCC)C(=O)O)cc1 (stereo not drawn) | inconclusive: 11.2 µM [activator, partial curve, poor fit] |  |
| NNC(=O)CCCCCCCCCCOCCCCO | inconclusive: 11.2 µM [activator, partial curve, poor fit] |  |
| COc1cccc(/C=C2\C(=O)N(c3cccc(C)c3)C(=O)c3ccccc32)c1 | inconclusive: 20 µM [activator, partial curve, poor fit] |  |
| CSc1nccc(NC(=O)c2cccc(Br)c2)n1 | inconclusive: 11.2 µM [activator, partial curve] |  |
| O=C(O)c1cccc2c1-c1ccccc1/C2=N\Nc1ccccc1 | inconclusive: 12.6 µM [activator, single point] |  |
| COCCNC(=O)/C(C#N)=C/c1cccc(OCc2ccccc2)c1 | inconclusive: 22.4 µM [activator, single point] |  |
| C=CCn1c(=O)c2ccccc2n2c(SCc3nc4ccccc4s3)nnc12 | inconclusive: 25.1 µM [activator, single point] |  |
| CN(C)c1nc(C=C(C#N)C#N)c(Cl)n1-c1ccc(F)cc1 | inconclusive: 22.4 µM [activator, single point] |  |
| O=C(NC1CCCCCC1)C(Cc1ccccc1)n1cccc1 (stereo not drawn) |  | inactive: 30% |
| O=C(NCc1cccc(C(F)(F)F)c1)c1ccc2c(c1)OCCO2 | inconclusive: 35.5 µM [activator, single point] |  |
| O=[N+]([O-])c1ccccc1/C=N/n1c(C2CCCCC2)n[nH]c1=S | inconclusive: 28.2 µM [activator, single point] |  |
| COc1cc(NC(=S)NCCc2c[nH]c3ccccc23)c(OC)cc1Cl | inconclusive: 25.1 µM [activator, partial curve, poor fit] |  |

| Compound | Potency | growth rescue (activation) |
| --- | --- | --- |
| COCCNC(=O)c1ccc2c(c1)N(Cc1cc(C)ccc1C)C(=O)c1ccccc1S2(=O)=O |  | inactive: 8.79% |
| COc1ccc(-n2nc(C(=O)NCC(=O)N3CCCCCC3)c3ccccc3c2=O)cc1Cl | inconclusive: 28.2 µM [activator, single point] |  |
| COc1ccc(OCCN(C)Cc2c(O)ccc3ccccc23)cc1 |  | inactive: -9.15% |
| CNC(=O)c1cc2c(s1)-c1ccccc1CC2 | inconclusive: 15.8 µM [activator, partial curve, poor fit] |  |
| O=C(OCC(=O)N1CCc2ccccc21)c1cncc(Br)c1 | inconclusive: 35.5 µM [activator, single point] |  |
| O=S(=O)(c1ccccc1C(F)(F)F)N1CCN(c2ncnc3sccc23)CC1 | active: 11.2 µM |  |
| CSS(=O)(=O)c1cccc2cccnc12 |  | inactive: 23.3% |
| CC1(C)C(=O)N(c2ccccc2F)C(=O)c2ccccc21 | inconclusive: 35.5 µM [activator, single point] |  |
| COc1ccc(C(C)(O)c2nc(-c3ccc(OC)nc3)cs2)cc1 (stereo not drawn) |  | inconclusive: 43.6% [activator] |
| O=C(NC(=S)Nc1ccc(N2CCOCC2)cc1)c1cccc(Cl)c1 | inconclusive: 20 µM [activator, single point] |  |
| Cc1sc2ncnc(Sc3ccccc3C(=O)Nc3ccc(C#N)cc3)c2c1C | inconclusive: 14.1 µM [activator, partial curve, poor fit] |  |
| Cc1c(Cl)cccc1NC(=S)NCC1COc2ccccc2O1 (stereo not drawn) | inconclusive: 17.8 µM [activator, partial curve, poor fit] |  |
| COc1ccc(N2CCN(c3c4c(nc5nncn35)CCC4)CC2)cc1 | inconclusive: 12.6 µM [activator, single point] |  |
| O=C(Cc1cccs1)Nc1nc2ccccc2s1 | active: 15.8 µM |  |
| CC(=O)c1cccc(NC(=O)CCCN2C(=O)COc3ccc(C)cc32)c1 |  | inactive: 15.6% |
| Cc1ccccc1C(=O)Nc1ccccc1Sc1ccccc1 | inconclusive: 35.5 µM [activator, single point] |  |
| NC1=NC(=Nc2ccc(S(=O)(=O)N3CCOCC3)cc2)c2ccccc21 | inconclusive: 35.5 µM [activator, single point] |  |
| CC1(C)C(=O)OC(c2cc(Br)ccc2O)C(C)(C)C1=O (stereo not drawn) | inconclusive: 11.2 µM [activator, partial curve] |  |
| Cc1cc(C(=O)Cn2cnc3cc(F)ccc3c2=O)c(C)n1C1CC1 |  | inactive: -39.1% |
| O=C(O)c1cc(-c2cccc([N+](=O)[O-])c2)nc2ccccc12 | inconclusive: 35.5 µM [activator, single point] |  |
| CCOc1ccccc1OCCCCOc1ccccc1F | inconclusive: 8.91 µM [activator, partial curve, poor fit] |  |
| CCn1cc(CCC(=O)NCCc2ccccc2)c2ccccc21 | inconclusive: 11.2 µM [activator, partial curve, poor fit] |  |
